# Assay results reported in publication PMC4336329 (PLoS ONE, 2015).
# Hit rate of the full screen: of about 310,000 compounds, about 2,200 (0.71%) showed an effect of 50% or more. Effects have a minus sign here. The list shows a part of the results.
# Biological target: human ether-à-go-go-related gene (hERG) potassium channel (human, UniProt Q12809)
# Test: primary screen, population patch clamp on CHO cells stably expressing hERG
# Chain of human ether-à-go-go-related gene (hERG) potassium channel (Q12809 whole entry, looked up): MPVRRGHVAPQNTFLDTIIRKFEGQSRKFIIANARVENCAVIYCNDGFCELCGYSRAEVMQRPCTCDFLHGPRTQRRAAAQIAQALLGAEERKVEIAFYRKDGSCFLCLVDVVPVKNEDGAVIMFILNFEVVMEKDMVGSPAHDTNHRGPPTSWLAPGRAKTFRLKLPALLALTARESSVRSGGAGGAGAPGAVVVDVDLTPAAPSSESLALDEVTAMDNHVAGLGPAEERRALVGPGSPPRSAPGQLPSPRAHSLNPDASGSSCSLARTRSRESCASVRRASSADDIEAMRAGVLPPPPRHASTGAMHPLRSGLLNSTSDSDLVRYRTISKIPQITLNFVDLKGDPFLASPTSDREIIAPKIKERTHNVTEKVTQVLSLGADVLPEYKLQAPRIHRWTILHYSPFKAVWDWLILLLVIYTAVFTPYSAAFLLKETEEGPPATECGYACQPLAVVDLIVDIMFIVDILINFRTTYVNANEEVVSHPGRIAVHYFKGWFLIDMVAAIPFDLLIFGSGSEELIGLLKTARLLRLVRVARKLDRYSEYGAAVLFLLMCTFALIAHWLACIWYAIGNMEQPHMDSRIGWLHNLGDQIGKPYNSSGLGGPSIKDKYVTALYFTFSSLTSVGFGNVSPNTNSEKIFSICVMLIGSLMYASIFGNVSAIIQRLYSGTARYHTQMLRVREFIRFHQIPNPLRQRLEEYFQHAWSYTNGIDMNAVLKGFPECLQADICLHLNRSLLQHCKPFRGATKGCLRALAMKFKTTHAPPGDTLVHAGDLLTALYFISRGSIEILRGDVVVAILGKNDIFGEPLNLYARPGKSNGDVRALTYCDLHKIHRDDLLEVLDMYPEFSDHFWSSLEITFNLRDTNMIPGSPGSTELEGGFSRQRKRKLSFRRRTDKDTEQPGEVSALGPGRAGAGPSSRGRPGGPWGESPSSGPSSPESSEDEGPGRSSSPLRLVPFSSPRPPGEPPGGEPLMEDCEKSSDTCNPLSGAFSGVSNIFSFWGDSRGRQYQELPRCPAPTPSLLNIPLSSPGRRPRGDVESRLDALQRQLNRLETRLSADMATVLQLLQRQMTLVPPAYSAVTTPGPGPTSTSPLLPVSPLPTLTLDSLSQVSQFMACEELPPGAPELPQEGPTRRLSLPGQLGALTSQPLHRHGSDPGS
row,SMILES,"hERG current change (%, negative = inhibition) at 1uM"
1,CCOC(=O)c1cnc(-c2cccc(OC)c2)[nH]c1=O,1.79%
2,CCN(CC)C(=O)Cn1nc(-c2ccccc2O)nc1SCC(=O)Nc1ccc(OC)cc1,-12.1%
3,O=C(CSc1ncnc2ccccc12)NCCCO,1.04%
4,O=C(NC(Cc1ccc(O)cc1)C(=O)O)c1ccc2c(c1)OCO2 (stereo not shown),6.27%
5,CCOC(=O)CNc1c(-c2ccccc2)nc2ccc(Cl)cn12,-27.6%
6,CC(C)(C)OC(=O)N1CCN(C(=O)c2nc[nH]c2C(=O)N2CCN(C(=O)OC(C)(C)C)CC2)CC1,18.4%
7,Cc1nnc(N2C(=O)C(=O)/C(=C(/O)c3ccc4c(c3)CC(C)O4)C2c2ccccc2F)s1 (stereo not shown),16.8%
8,Cc1nc(C)c(C(=O)OCC(=O)N2CCN(c3ccccc3)CC2)s1,6.34%
9,CCCCN(C)C(=O)c1cn(CC)c2nc(C)ccc2c1=O,-0.182%
10,N#CN=C1SCCS1,15.1%
11,COc1c2ccoc2nc2c(OC)c(OCC(OC(C)=O)C(C)(C)O)ccc12 (stereo not shown),15.3%
12,CCN1C(=O)c2ccccc2S(=O)(=O)c2ccc(C(=O)NCC(OC)OC)cc21,11.2%
13,[N-]=[N+]=CC(=O)C(c1ccccc1)(c1ccccc1)c1ccccc1,18.4%
14,Cc1ccc(OCC(=O)NC(=S)Nc2ccc(S(=O)(=O)Nc3cc(C)on3)cc2)c(Br)c1,11.3%
15,O=C(NC1CCCCCCC1)c1cc(-c2ccccn2)nc2ccccc12,18.4%
16,Nc1cc(C(F)(F)F)ccc1-n1cccc1,10.9%
17,CC1(C)CC(=O)C=C(NC2CCCC(O)C2)C1 (stereo not shown),12.2%
18,O=C(CN1C(=O)CCC1=O)Nc1ccc(S(=O)(=O)N2CCOCC2)cc1,7.37%
19,Cc1ccc(Nc2cc(=O)oc3ccccc23)c(C)c1,3.93%
20,CC(=O)Nc1ccc(S(=O)(=O)N2CCN(c3ccc([N+](=O)[O-])c(NCCN4CCOCC4)c3)CC2)cc1,-1.34%
21,O=C(Cc1ccccc1)Nc1nccs1,3.82%
22,COC(=O)c1c(-n2c(C)cc(C=O)c2C)sc2c1CCCC2,9.3%
23,CCOC(=O)C1=C(C)NC(C)=C(C(=O)OCC)C1c1nc2ccccc2[nH]1,12.9%

row,SMILES,"hERG current change (%, negative = inhibition) at 1uM"
1,O=c1[nH]cnc2ccc([N+](=O)[O-])cc12,2.51%
2,OCCSc1nc(-c2cccnc2)nc2ccccc12,6.99%
3,O=C(O)C=C1C2CC3CC(C2)CC1C3,0.291%
4,COc1ccc(-c2cc(-c3cccs3)nc3sc(C#N)c(N)c23)cc1,8.56%
5,Cc1cc(C)c(S(=O)(=O)c2cc(F)ccc2C)c(Cl)n1,13%
6,COc1ccc(/C(N)=N/OC(=O)CCCc2ccccc2)cc1OC,2.51%
7,O=P(c1ccccc1)(c1ccccc1)c1nc2ccccc2s1,-4.05%
8,Br.COc1ccc(/C(O)=C/Sc2nnc(Cc3ccccc3)o2)cc1,2.53%
9,C/C(N)=C(/C#N)C(=O)COC(=O)CSc1ccccc1,15.5%
10,CC(C)(C)OC(=O)N1CCC[C@H]1c1nnc(SCc2ccccc2Cl)o1,13.3%
11,NC(=O)Cn1nc([N+](=O)[O-])nc1Oc1ccccc1C(=O)N1CCOCC1,5.66%
12,Cc1cnc(C(=O)OC(C)C(=O)NCc2ccccc2)cn1 (stereo not shown),6.71%
13,CC(C(=O)N1CCN(Cc2ccc3c(c2)OCO3)CC1)c1ccc([N+](=O)[O-])cc1 (stereo not shown),-7.34%
14,CCOc1ccc(C(C)=O)cc1CN1C(=O)c2ccccc2S1(=O)=O,11.7%
15,Cc1ccc(C(=O)Nc2ccc(Cl)cn2)cc1,8.03%
16,Cc1ccc(C)c(NC(=S)NCCCN2CCOCC2)c1,4.62%
17,Cc1cc(NC(=O)CSc2cn(C)c3ccccc23)no1,10.4%
18,O=C(NC1CCCCC1)C(c1cccs1)N(CC1CCCO1)C(=O)c1csnn1 (stereo not shown),8.37%
19,O=C(O)c1ccc2[nH]c3c(c2c1)CSCC3,10.8%
20,COc1ccc(-c2nc(Cc3ccc(Cl)cc3)no2)cc1OC,10.7%
21,c1ccc(NCC2OCc3ccccc3CO2)cc1,-0.23%
22,Cc1cc(NC(=O)c2cnn3cccnc23)no1,10.7%
23,COC(CNC(=O)CCc1c(C)nc2c(-c3ccccc3)c(C)nn2c1C)OC,4%

row,SMILES,"hERG current change (%, negative = inhibition) at 1uM"
1,CC(C)Oc1ccc(N2CC(C(=O)Nc3ccccn3)CC2=O)cc1 (stereo not shown),-11.9%
2,CCOC(=O)COc1ccc2nsnc2c1,16.4%
3,Cc1nc(SCC(=O)Nc2cccc(Cl)c2)n[nH]1,3.54%
4,COC(=O)c1ccc(CSc2nnc(Nc3ccc(OC)cc3)s2)o1,-16.3%
5,Cc1c(C(=O)O)oc2c1C(=O)CC(C)(C)C2,6.09%
6,Cc1ccc2nc(N(CCN3CCOCC3)C(=O)CCS(=O)(=O)c3ccccc3)sc2c1.Cl,10.7%
7,Cc1nnc(SCC(=O)Nc2sc3c(c2C#N)CCCC3)[nH]c1=O,0.963%
8,CCOc1nc2c(c(-c3cccs3)c1C#N)Cc1ccccc1-2,11.2%
9,S=C(Nc1ccccc1)N1CCn2c(nc3ccccc32)C1,4.54%
10,Cc1noc(C)c1S(=O)(=O)N1CCCC(C(=O)N2CCN(C3CCCCC3)CC2)C1 (stereo not shown),-4.43%
11,CC(=O)OC1(C(F)(F)F)Oc2ccccc2NC1=O (stereo not shown),9.52%
12,CCCCC[C@H]1CN(CCCC)C(=O)[C@@H]1CC(=O)NCc1ccccc1,-25.7%
13,CCOc1ccc(NC(=O)CSc2nccn2Cc2ccco2)cc1,-0.291%
14,O=C(CSc1nc2ccccc2nc1SCC(=O)N1CCCCC1)N1CCCCC1,15.6%
15,CCN(CC)CCNC(=O)c1cc2c(=O)n(C)c3ccccc3c2n1C,7.79%
16,O=C(CSc1nc(-c2ccc(F)cc2)cs1)N1CCOCC1,-6.82%
17,CCOC(=O)N1CCN(C(=O)CSCc2ccccc2Cl)CC1,7.53%
18,Cl.Nc1ccc2nc[nH]c2c1,17.2%
19,c1ccc(-c2noc(CN3CCCC(OCc4ccccn4)C3)n2)cc1 (stereo not shown),5.58%
20,COc1cccc(OCc2ccc(C(=O)NCC3CCCO3)cc2)c1 (stereo not shown),2.86%
21,CCC(C)Nc1c2c(nc3c(-c4ccccc4)c(C)nn13)CCC2 (stereo not shown),-1.9%
22,C=CCc1c(C)nc(SCc2nc3ccccc3c(=O)[nH]2)[nH]c1=O,15.5%
23,CCOC(=O)c1cn(C2CC2)c2c(F)c(F)c(F)cc2c1=O,10.3%

row,SMILES,"hERG current change (%, negative = inhibition) at 1uM"
1,COc1cc(CNn2c(C)n[nH]c2=S)cc(Cl)c1OCc1ccccc1,3.88%
2,CC(=O)c1ccc(N2CCN(S(=O)(=O)c3c(C)[nH]c(C)c3C(=O)N3CCCC3)CC2)cc1,2.12%
3,COC(=O)CSc1nnc(-c2ccc(S(=O)(=O)NCc3ccccc3Cl)cc2)o1,-0.0977%
4,CC(C(=O)NC1C(=O)N2C(C(=O)O)=C(CSc3nnnn3C)CSC12)n1cc(Cl)cn1 (stereo not shown),11.9%
5,COc1ccc(N2CCN(C(=O)COC(=O)c3ccccc3OCc3ccc(F)cc3)CC2)cc1,10.8%
6,CCOc1ccc(OCC(=O)NCCS(=O)(=O)N2CCN(c3ccc(F)cc3)CC2)cc1,9.86%
7,CCOC(=O)c1[nH]c(C)c(C(=O)NC(C)CC)c1C (stereo not shown),9.79%
8,CC(C)(C)C(=O)[C@@H]1[C@@H]2C(=O)N(c3ccc4c(c3)OCCO4)C(=O)[C@@H]2C2c3ccccc3C=CN21 (stereo partly shown),-8.57%
9,Nc1ccc(Oc2ccc3c(c2)C(=O)N(CC2CCCO2)C3=O)cc1 (stereo not shown),12%
10,O=C(NCCN1C(=O)S/C(=C/c2cccnc2)C1=O)c1cccs1,15%
11,Cc1cccc(NC(=O)CSc2nnc(CSc3nc(C)cc(C)n3)o2)c1,15.5%
12,COc1cc(-c2nnc(COC(=O)c3cc(C)no3)o2)cc(OC)c1OC,2.63%
13,O=C(NCCCn1ccnc1)C(=O)NCC1OCCN1S(=O)(=O)c1cc(F)ccc1F (stereo not shown),7.71%
14,COc1ccc(/C=N/NC(=O)Cn2cnc3ccccc3c2=O)cc1,13.6%
15,COC(=O)C1=C(c2ccc(S(C)(=O)=O)cc2)C[C@@H]2CC[C@H]1N2C(=O)NCC1CC1,-2.95%
16,Cc1cccc(C2CC(c3ccccc3)Nc3ncnn32)c1 (stereo not shown),1.02%
17,COc1ccc(CNC(=O)CCNS(=O)(=O)c2ccc(C)cc2)cc1,0.121%
18,O=C1C=C(c2ccccc2)C[C@H](c2cccs2)[C@H]1n1nnc([N+](=O)[O-])n1,9.62%
19,CC1=CC(c2ccc(Cl)cc2)n2nc(NC(=O)c3ccccc3)nc2N1 (stereo not shown),-8.25%
20,Cc1c(C(=O)c2ccccc2C(=O)O)sc2ccccc12,8.32%
21,COc1ccc(CNC(=O)COC(=O)CC(NC(N)=O)c2ccc(Cl)cc2)cc1OC (stereo not shown),0.856%
22,CS(=O)(=O)c1ccc(NC(=O)CCN2C(=O)C3CCCCC3C2=O)cc1 (stereo not shown),-0.267%
